Data published in the supplement of paper PMC10723795.
Where a name gives a salt, the structure may show the parent alone. The list shows a part of the results.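 The calls were made as follows: active = more than 2 SD below the DMSO mean: under 0.85 at 10 µM or 0.885 at 1 µM; inactive = the rest.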 Single values are uncertain, as repeats are few or missing. Where a SMILES comes first, the peptide text is derived from it.

System: RPE1
Assay: nucleolar normality score relative to DMSO (fraction of DMSO control); RPE1 is a non-cancer human cell line; higher = more normal nucleoli (less nucleolar stress)
Details: 24 h
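Also: fixed cells immunolabelled for nucleolin and UBF, 40 image fields per well in 384-well plates, per-cell score = nucleolin nucleolar/nucleoplasm intensity ratio divided by the matching UBF ratio.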

Compound	nucleolar normality score (1 µM)	nucleolar normality score (10 µM)
C=CC(=O)N1CC[C@@H](Oc2nc(Nc3ccc(N4CCC(N5CCN(C)CC5)CC4)cc3)c(C(N)=O)nc2CC)C1 [Naquotinib(ASP8273)]	inactive: 1.03	inactive: 1.04
COc1ccc(COc2cc3oc(=O)c4cc(C(C)O)ccc4c3cc2OC)cc1 (stereo not drawn) [Palomid 529 (P529)]	inactive: 1.02	inactive: 1.07
c1ccc(Cn2c(-c3ccc(OCC(C4CCNCC4)n4c(-c5ccccc5)nc5ccccc54)cc3)nc3ccccc32)cc1 (stereo not drawn) [Deltarasin]	active: 0.869	inactive: 0.87
CC[C@@H]1C(=O)N(C)c2cnc(Nc3ccc(C(=O)NC4CCN(C)CC4)cc3OC)nc2N1C1CCCC1	inactive: 1.04	inactive: 1.06
CN(CC(=O)N(Cc1ccc(C2CCCCC2)cc1)c1ccc(C(=O)NO)cc1)S(=O)(=O)c1c(F)c(F)c(F)c(F)c1F	inactive: 0.995	inactive: 1.03
CO[C@H]1C[C@@H]2CC[C@@H](C)[C@@](O)(O2)C(=O)C(=O)N2CCCC[C@H]2C(=O)O[C@H]([C@H](C)C[C@@H]2CC[C@@H](OP(C)(C)=O)[C@H](OC)C2)CC(=O)[C@H](C)/C=C(\C)[C@@H](O)[C@@H](OC)C(=O)[C@H](C)C[C@H](C)/C=C/C=C/C=C/1C [Ridaforolimus (Deforolimus, MK-8669)]	active: 0.883	inactive: 0.88
CCCCC[C@H](O)CC(=O)CCc1ccc(O)c(OC)c1 [6-Gingerol]	inactive: 1.02	inactive: 0.919
Fc1ccc(CNc2ncnc3ccc(F)cc23)cc1 [Spautin-1]	inactive: 1.03	inactive: 1.02
CCS(=O)(=O)N1CCC([C@@H](C)n2c(C)c(C(=O)NCc3c(OC)cc(C)[nH]c3=O)c3ccccc32)CC1	inactive: 0.902	inactive: 1.01
O=S(=O)(N=Cc1c(O)ccc2ccccc12)c1cccs1	inactive: 1.02	inactive: 1.09
CC12CCC(O)CC1=CCC1C2CCC2(C)C(C(O)CC(O)(C(F)(F)F)C(F)(F)F)CCC12 (stereo not drawn)	inactive: 1.04	inactive: 1.1
CCCC(CCC)C(=O)O [Valproic acid sodium salt (Sodium valproate)]	inactive: 0.981	inactive: 1.05
CC[C@H](Nc1ncnc2[nH]cnc12)c1nc2cccc(F)c2c(=O)n1-c1ccccc1 [Idelalisib (CAL-101, GS-1101)]	inactive: 1.01	inactive: 1.04
CC[C@@H](N)CNc1ccnc(-c2cc(-c3cnn(C)c3)ccc2O)n1	inactive: 0.983	inactive: 0.972
O=CN1CC/C(=C/c2ccc3c(c2)OCO3)C1=O	inactive: 1	inactive: 1.1
O=C(NC1CCNCC1)c1n[nH]cc1NC(=O)c1c(Cl)cccc1Cl	inactive: 1.07	inactive: 1.07
O[C@@H](COc1cccc2ncccc12)CN1CCN(C2c3ccccc3[C@@H]3[C@H](c4ccccc42)C3(F)F)CC1 (stereo partly drawn)	inactive: 1.04	inactive: 1.11
NS(=O)(=O)NCCNc1nonc1/C(=N/O)Nc1ccc(F)c(Br)c1	active: 0.866	inactive: 0.891
CCC(=O)NCC[C@@H]1CCc2ccc3c(c21)CCO3 [Ramelteon]	inactive: 1.05	inactive: 1.05
COC1(c2sc3c(N4CCOCC4)nc(-c4cnc(N)nc4)nc3c2C)COC1	inactive: 0.961	active: 0.771
CN1CCN(C(=O)C=Cc2ccc([N+](=O)[O-])o2)CC1	inactive: 0.983	inactive: 0.988
CC(C)C[C@H](NC(=O)CNC(=O)c1cc(Cl)ccc1Cl)B1OC(=O)CC(CC(=O)O)(C(=O)O)O1 (stereo partly drawn) [Ixazomib Citrate (MLN9708)]	inactive: 1.06	inactive: 0.906
COc1cc(C[C@H]2C(=O)OC[C@@H]2Cc2ccc(OC)c(OC)c2)ccc1O [(-)-Arctigenin]	inactive: 1.1	inactive: 1.1
Cc1ccc(NC(=O)Nc2cc(C(F)(F)F)ccc2F)cc1Nc1ccc2c(c1)NC(=O)/C2=C\c1ccc[nH]1	inactive: 0.941	inactive: 1.01
CNC(=O)c1ccccc1Sc1ccc2c(/C=C/c3ccccn3)n[nH]c2c1 [Axitinib]	inactive: 1.04	inactive: 1.21

Compound	nucleolar normality score (1 µM)	nucleolar normality score (10 µM)
C[C@H]1CNC(=O)c2cnn3ccc(nc23)N[C@H](C)c2cc(F)ccc2O1	inactive: 1.02	inactive: 1.03
CCOc1cc(N2CCC(O)CC2)ccc1Nc1ncc2c(n1)N(C)c1ccccc1C(=O)N2C	inactive: 1.02	inactive: 1.01
O=C1c2ccccc2-c2n[nH]c3cccc1c23	inactive: 1.07	inactive: 1.11
O=C(c1ccc(OCCN2CCCCC2)cc1)c1c(-c2ccc(O)cc2)sc2cc(O)ccc12 [Raloxifene HCl]	inactive: 1.01	inactive: 1.09
CNC(=O)c1ccc(N2C(=S)N(c3cnc(C#N)c(C(F)(F)F)c3)C(=O)C23CCC3)cc1F	inactive: 1.04	inactive: 0.907
CO[C@H]1CC[C@H](N2C(=O)CNc3ncc(-c4ccc(C(C)(C)O)nc4)nc32)CC1	inactive: 1.05	inactive: 0.996
CN1CCN(c2ccc(C(=O)Nc3n[nH]c4ccc(Cc5cc(F)cc(F)c5)cc34)c(NC3CCOCC3)c2)CC1 [Entrectinib (RXDX-101)]	inactive: 0.974	inactive: 1.06
O=C(Nc1cccc(Cl)c1)Nc1ncc(CCNc2ncnc3ccsc23)s1	inactive: 0.951	inactive: 0.979
CC(C)C(C(=O)O)N1C(=O)C(=Cc2ccc(Br)cc2)SC1=S (stereo not drawn)	inactive: 0.964	inactive: 1
CNC(=O)CN1CCC(Oc2cc3c(Nc4cccc(Cl)c4F)ncnc3cc2OC)CC1 [Sapitinib (AZD8931)]	inactive: 1.03	inactive: 1.01
CCN1CCCC1CNC(=O)c1cc(S(=O)(=O)CC)c(N)cc1OC (stereo not drawn) [Amisulpride]	inactive: 0.943	inactive: 1.02
CCCS(=O)(=O)Nc1ccc(F)c(C(=O)c2c[nH]c3ncc(Cl)cc23)c1F	inactive: 1.03	inactive: 1.15
O=C(O)CCn1c(O)c(C2=c3cc(Cl)ccc3=NC2=O)sc1=S	inactive: 0.935	inactive: 0.963
S=P(N1CC1)(N1CC1)N1CC1 [Thiotepa]	inactive: 0.995	inactive: 1.03
O=C(Nc1cc(Cl)cc2c1[nH]c1cnccc12)c1cccnc1	inactive: 0.961	inactive: 0.994
Oc1cc(O)c2c(c1)OC(c1ccc(O)c(O)c1)C(O)C2 (single isomer, unassigned; (+)) [(+)-Catechin]	inactive: 1.05	inactive: 0.905
COc1ccccc1OCCNCC(O)COc1cccc2[nH]c3ccccc3c12 (stereo not drawn) [Carvedilol Phosphate]	inactive: 0.942	inactive: 1.01
COc1ccc(CCCOC(Cn2ccnc2)c2ccc(OC)cc2)cc1 (stereo not drawn)	inactive: 1.03	inactive: 1.05
CC(C)CC(NC(=O)C(Cc1ccccc1)NC(=O)C(CCC(N)=O)NC(=O)C(Cc1ccc(O)cc1)NC(=O)C(C)NC(=O)CNC(=O)C(CCCCN)NC(=O)C(Cc1c[nH]c2ccccc12)NC(=O)C(NC(=O)C(Cc1c[nH]c2ccccc12)NC(=O)C(CCCCN)NC(=O)CNC(=O)C(CC(N)=O)NC(=O)C(CCC(=O)O)NC(=O)C(Cc1c[nH]c2ccccc12)NC(=O)C(NC(=O)C(Cc1c[nH]c2ccccc12)NC(=O)C(CO)NC(=O)CNC(=O)C1CCCN1C(=O)C(Cc1c[nH]c2ccccc12)NC(=O)C(CCC(N)=O)NC(=O)C(Cc1ccccc1)NC(=O)CNC(=O)C(N)Cc1c[nH]cn1)C(C)O)C(C)O)C(=O)NC(CCCCN)C(=O)NCC(=O)NCC(=O)NCC(=O)NCC(=O)NC(CO)C(=O)NC(CCCNC(=N)N)C(=O)NC(CCCNC(=N)N)C(=O)NC(CCCNC(=N)N)C(=O)NC(CCCNC(=N)N)C(=O)NC(CCCNC(=N)N)C(=O)NC(CCCNC(=N)N)C(=O)NC(CCCNC(=N)N)C(=O)NC(CCCNC(=N)N)C(=O)NC(CCCNC(=N)N)C(=O)O (stereo not drawn) (H-HGFQWPGSWTWENGKWTWKGAYQFLKGGGGSRRRRRRRRR-OH; configuration not given here)	inactive: 0.937	inactive: 1.06
COC(=O)c1ccc(O)c(O)c1 [Methyl protocatechuate]	inactive: 1.01	inactive: 0.878
Cn1cncc1[C@@](N)(c1ccc(Cl)cc1)c1ccc2c(c1)c(-c1cccc(Cl)c1)cc(=O)n2C [Tipifarnib]	inactive: 1.08	inactive: 1.13
C[C@@H]1O[C@@H](O[C@H]2[C@H](O[C@H]3CC[C@@]4(C)[C@@H](CC[C@]5(C)[C@@H]4CC=C4[C@@H]6CC(C)(C)CC[C@]6(C(=O)O[C@@H]6O[C@H](CO[C@@H]7O[C@H](CO)[C@@H](O)[C@H](O)[C@H]7O)[C@@H](O)[C@H](O)[C@H]6O)CC[C@]45C)[C@]3(C)CO)OC[C@H](O)[C@@H]2O)[C@H](O)[C@H](O[C@@H]2O[C@H](CO)[C@@H](O[C@@H]3O[C@H](CO)[C@@H](O)[C@H](O)[C@H]3O)[C@H](O)[C@H]2O)[C@H]1O [Macranthoidin B]	inactive: 1.07	inactive: 1.08
O=c1[nH]c(=O)n([C@H]2C[C@H](O)[C@@H](CO)O2)cc1C(F)(F)F [Trifluridine]	inactive: 0.937	inactive: 0.941
Cc1cc(F)c(Nc2ncnc3cc(OCc4ccccc4)ccc23)cc1O	inactive: 0.907	active: 0.722
